PubChem BioAssay AID596 (National Center for Advancing Translational Sciences (NCATS), 2007)
Values joined by “and” are separate entries in the source; they are usually repeats but may differ in a detail not shown here. Identical values can stand only once. About 1,400 (2%) of roughly 71,000 compounds were called active. The inconclusive results got no clear call from the source; some entries with a clear call stand among them for comparison. The call rests on the fitted dose curve; in most records, active means well fitted curve in the direction sought with a large enough effect; inconclusive means small, poorly fitted or top-dose-only effect; inactive means no such curve, though single readings can be large or run the other way. A potency beside an inconclusive call is a rough fit, not a confirmed value. Some compounds were tested as several samples or in several runs, with calls that do not always agree. Non-standard residues stand in square brackets, D forms with d. Residues, ends and D or L forms follow the SMILES beside them.
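Further: actives lower thioflavin S fluorescence by blocking filaments or displacing dye.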
On the % scale 0 is the no-effect control and ±100 the full control effect; potency means the concentration at half of the fitted maximal effect.

What follows are compounds tested against Microtubule-associated protein tau (Homo sapiens) (UniProt P10636) (assay: qHTS Assay for Tau Filament Binding). Details: recombinant tau filaments, thioflavin S fluorescence, 15 h, filaments grown with octadecylsulfate alongside compound; series mostly up to 57.1 µM.
UniProt P10636, sequence (P10636 whole entry, looked up): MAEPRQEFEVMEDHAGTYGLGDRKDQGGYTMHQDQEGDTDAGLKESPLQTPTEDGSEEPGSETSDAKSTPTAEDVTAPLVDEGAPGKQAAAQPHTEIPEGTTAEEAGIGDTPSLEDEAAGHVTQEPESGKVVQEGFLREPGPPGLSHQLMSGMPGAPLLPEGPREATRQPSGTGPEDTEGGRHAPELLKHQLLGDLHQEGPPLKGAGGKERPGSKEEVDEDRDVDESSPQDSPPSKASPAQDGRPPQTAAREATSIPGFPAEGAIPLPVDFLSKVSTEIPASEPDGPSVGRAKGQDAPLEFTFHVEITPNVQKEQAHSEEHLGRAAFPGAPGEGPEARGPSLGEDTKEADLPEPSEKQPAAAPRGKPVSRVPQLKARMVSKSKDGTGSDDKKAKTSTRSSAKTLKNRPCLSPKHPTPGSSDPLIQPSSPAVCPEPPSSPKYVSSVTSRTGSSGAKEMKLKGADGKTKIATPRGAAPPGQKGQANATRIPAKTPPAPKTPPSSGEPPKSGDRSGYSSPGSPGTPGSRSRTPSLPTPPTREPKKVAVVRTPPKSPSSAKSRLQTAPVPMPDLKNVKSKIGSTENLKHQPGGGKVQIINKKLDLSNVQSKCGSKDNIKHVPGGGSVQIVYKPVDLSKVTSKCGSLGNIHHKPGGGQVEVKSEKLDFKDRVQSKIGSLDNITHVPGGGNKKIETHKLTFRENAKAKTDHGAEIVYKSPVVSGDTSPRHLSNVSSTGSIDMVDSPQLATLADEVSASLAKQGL
Outline: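 Recombinant tau protein (human, 1 uM final) plus 30 uM ODS in HEPES pH 7.4 with NaCl, DTT and thioflavine S. Compound present from the start; fluorescence at 510 nm after 15 h, 37 C.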
With `Nc1nonc1-c1nc2ccccc2n1CC(=O)N1CCN(c2ccc(F)cc2)CC1` the Potency was “inactive”. `Cc1cc(C)c(C#N)c(N2CCN(Cc3ccc4c(c3)OCO4)CC2)n1` was tested, and the Potency was “inactive”. In the case of `O=C(c1ccncc1)N1CCC[C@@]2(CCN(c3ccncc3)C2)C1`, the Potency is reported as “inactive”. `CCOC(=O)CSC1=C(C#N)C(c2ccccc2)C(C(C)=O)=C(C)N1` (stereo not drawn) was tested, and the Potency was “inactive”. `O=c1cc(-c2ccccc2)oc2cc(O)c(O)c(O)c12` was tested, and the Potency was active: 39.8 µM and active: 3.98 µM. For `C[Si](C)(c1ccc(C(=O)O)cc1)c1ccc(C(=O)O)cc1`, the activity change, negative = inhibition was inactive: 5.1% [at 11.4 µM]. With `CCOC(=O)c1sc2nc(N3CCOCC3)c3c(c2c1N)CCN(C)C3` the Potency was active: 7.94 µM. `Cc1ccc(Cn2c(=N)c(C(=O)NCc3ccco3)cc3c(=O)n4ccccc4nc32)cc1` was tested, and the Potency was active: 3.16 µM. In the case of `Cc1cc(C)c(C#N)c(SCC(=O)c2cccs2)n1`, the Potency is reported as active: 2.51 µM. For `COc1cc(/C=c2\sc3nc(-c4ccncc4)nn3c2=O)ccc1OC(C)=O`, the Potency was inconclusive: 39.8 µM [decreasing]. `C=CCNC(=O)c1c(N)n(-c2ccc3c(c2)OCO3)c2nc3ccccc3nc12` was tested, and the Potency was “inactive”. For `O=C(NCc1ccco1)c1cc(-c2cccnc2)nc2ccc(Cl)cc12`, the Potency was inconclusive: 31.6 µM [decreasing]. With `Cc1nc2c(cc(Oc3ccc(S(=O)(=O)N4CCOCC4)cn3)c3ccsc32)s1` the Potency was inconclusive: 1.58 µM [decreasing]. For `CCOC(=O)c1ccc(NS(=O)(=O)c2ccc3[nH]c(=O)[nH]c3c2)cc1`, the Potency was inconclusive: 20 µM [decreasing]. With `CS(=O)(=O)Nc1cccc(-c2nc(NCc3cccnc3)c3ccccc3n2)c1` the Potency was “inactive”. `O=C(NCCC1=CCCCC1)c1cnccn1` was tested, and the Potency was inconclusive: 39.8 µM [decreasing]. `N#Cc1cc2c(nc1SCc1ccncc1)CCC2` was tested, and the Potency was active: 6.31 µM. With `COc1cc(CNc2ccc(C)c(C)c2)cc(OC)c1OC` the Potency was inconclusive: 20 µM [decreasing]. For `COc1ccc(NC(=O)c2ccco2)c(OC)c1`, the Potency was “inactive”. For `COc1cc2oc(-c3ccccc3)cc(=O)c2cc1OC`, the Potency was inconclusive: 39.8 µM [decreasing]. `COc1ccc(-c2nnc(SCc3nnc(-c4ccc(Cl)cc4)o3)n2-c2ccccc2)cc1` was tested, and the Potency was “inactive”. For `CCN(CC)c1ccc(NC(=O)CN2CCN(c3nc(C)cc(C)n3)CC2)cc1`, the Potency was inconclusive: 39.8 µM [decreasing]. With `O=C(c1ccco1)N1CCC2(CCCN(c3cccc(-c4ccccc4)c3)C2)CC1` the Potency was “inactive”. `COc1cccc(Cn2c(=O)c(C)nc3cnc(Oc4ccccc4)nc32)c1` was tested, and the Potency was “inactive”. In the case of `CC(=O)c1cc2c(=O)c3cc(C)ccc3oc2nc1C`, the Potency is reported as inconclusive: 3.98 µM [decreasing]. `CC(C)[C@@H]1C(=O)N(S(C)(=O)=O)[C@H]2CCN(C(=O)/C=C\CN3CCCCC3)[C@@H]12` was tested, and the Potency was inconclusive: 39.8 µM [decreasing]. With `Cc1cnc(CNc2ncnc3ccc(-c4ccccc4C)cc23)cn1` the Potency was “inactive”. With `O=C(CON1C(=O)c2ccccc2C1=O)c1ccccc1` the activity change, negative = inhibition was inactive: -1.7% [at 11.4 µM]. With `O=C(O)/C=C\c1c2ccc(=O)c(O)c-2oc2c(O)c(O)ccc12` the Potency was active: 5.01 µM. `COc1ccc(OC)c(N)c1` was tested, and the Potency was active: 12.6 µM. `O=C(NCc1ccco1)c1cccc(NC(=O)c2ccccc2)c1` was tested, and the Potency was “inactive”. With `C=CCn1cnc2c(c1=O)c1nc3ccccc3nc1n2/N=C/c1cccc(OC)c1OC` the Potency was inconclusive: 1.58 µM [decreasing]. For `CC(=O)NCC(=O)N[C@H](CCC(=O)O)C(=O)O` (Ac-Gly-[dE]-OH), the Potency was inconclusive: 39.8 µM [decreasing]. For `O=C(c1ccccc1Cl)N1CCN(c2ccccn2)CC1`, the Potency was inconclusive: 3.16 µM [decreasing]. For `COC(=O)c1ccccc1NC(=O)CNc1cc(Cl)ccc1N1CCOCC1`, the Potency was active: 15.8 µM. With `C=C(C)C(=O)OCCCCCC` the Potency was “inactive”. With `COc1cccc(Nc2ncc3ncc(=O)n(CCc4ccccc4)c3n2)c1` the Potency was “inactive”. For `CN1CCc2c(sc3c2c(=O)n(-c2ccccc2)c2nnc(SCc4ccc(F)cc4)n32)C1`, the Potency was active: 3.98 µM. For `c1ccc(-n2ncc3c2ncn2nc(-c4ccco4)nc32)cc1`, the Potency was inconclusive: 15.8 µM [decreasing]. For `CS(=O)(=O)N1CCC2(CC1)CN(Cc1nccs1)C2`, the Potency was inconclusive: 7.94 µM [decreasing]. `C=CCn1c(-c2cccs2)nc2ccccc21` was tested, and the Potency was “inactive”. In the case of `Cn1c(/N=C/c2c(O)ccc3ccccc23)nc2ccccc21`, the Potency is reported as inconclusive: 3.98 µM [decreasing]. With `CNCCCC12CCC(c3ccccc31)c1ccccc12` the Potency was inconclusive: 12.6 µM [decreasing]. For `NCCNc1cccc2ccccc12`, the Potency was inconclusive: 15.8 µM [decreasing]. For `CC(=O)N[C@@H](C(=O)O)C(C)(C)SN=O`, the Potency was inconclusive: 39.8 µM [decreasing]. In the case of `COc1ccc(NC(=O)NS(=O)(=O)c2ccc(C)cc2)c(OC)c1`, the Potency is reported as inconclusive: 25.1 µM [decreasing]. `Cc1cc(C(=O)CSc2nnc(-c3ccco3)o2)c(C)n1-c1ccc2c(c1)OCCO2` was tested, and the Potency was inconclusive: 39.8 µM [decreasing]. In the case of `Oc1cc2c(cc1O)CN(C(=S)NCCc1ccc(Cl)cc1)CCC2`, the Potency is reported as inconclusive: 39.8 µM [decreasing]. In the case of `C[C@@]12CCC(=O)C=C1CC[C@H]1[C@H]3CC[C@](O)(C(=O)CO)[C@]3(C)CC[C@@H]12`, the Potency is reported as “inactive”. `O=C1c2ccccc2CC[C@H]1CNCCc1ccc(O)cc1` was tested, and the Potency was inconclusive: 39.8 µM [decreasing]. For `Cc1[nH]c2ccccc2c1-c1nc2ccccc2[nH]1`, the Potency was inconclusive: 31.6 µM [decreasing]. In the case of `COc1ccccc1NC(=O)c1oc2ccc(C)cc2c1C`, the Potency is reported as “inactive”. In the case of `COc1ccc(C(=O)N2CCC3(CCCN(Cc4ccc(C#N)cc4)C3)CC2)cc1`, the Potency is reported as “inactive”. For `CCOC(=O)c1cnn(-c2sc(C(=O)OCC)c(C)c2C(=O)OCC)c1N`, the Potency was inconclusive: 39.8 µM [decreasing]. With `Cn1c(C(=O)O)c(CC(=O)NCc2cccnc2)c2ccccc21` the Potency was “inactive”. For `O=C(c1ccco1)N1CCC[C@@]2(CCN(Cc3ccccc3)C2)C1`, the Potency was “inactive”. With `COc1ccc(OC)c(CN2CCN(C(=O)c3cccs3)CC2)c1` the Potency was “inactive”. With `COc1c(C)c2c(c(O)c1C/C=C(\C)CCC(=O)O)C(=O)OC2` the Potency was inconclusive: 39.8 µM [decreasing]. In the case of `Cc1ccc(/C(=C/CN2CCCC2)c2ccccn2)cc1`, the Potency is reported as inconclusive: 39.8 µM [decreasing]. With `CC(=O)Oc1ccc(/C=C\C(=O)C[C@@H]2O[C@@H](Oc3cc(OC(C)=O)c4c(c3)O[C@@H](c3ccc(OC(C)=O)cc3)CC4=O)[C@H](OC(C)=O)[C@H](OC(C)=O)[C@@H]2OC(C)=O)cc1` the Potency was inconclusive: 39.8 µM [decreasing]. For `CCOC(=O)C1CCCN(C(=O)c2sc3nc(-c4ccc(OC)cc4)cn3c2C)C1` (stereo not drawn), the Potency was inconclusive: 20 µM [decreasing]. In the case of `Nc1sccc1C(=O)c1ccc(Cl)cc1`, the Potency is reported as inconclusive: 39.8 µM [decreasing]. With `Fc1ccc(C(c2nnnn2C2CCCC2)N2CCN(Cc3ccncc3)CC2)cc1` (stereo not drawn) the Potency was “inactive”. For `O=C(Nc1ccc2c(c1)OCO2)C1CCCN(c2nc3ccccc3s2)C1` (stereo not drawn), the Potency was active: 12.6 µM. For `COc1ccccc1CNc1nc(-c2ccccc2CN(C)C)nc2ccccc12`, the Potency was “inactive”. With `OCC(CO)(CO)N=Cc1c(O)ccc2ccccc12` the Potency was inconclusive: 39.8 µM [decreasing]. In the case of `CCOC(=O)c1cc(-c2ccncc2)nc2c1c(C)nn2-c1ccccn1`, the Potency is reported as inconclusive: 25.1 µM [decreasing]. For `Cc1ccc(-c2cc(C(F)F)n3ncc(C(=O)N4CCN(c5ccccn5)CC4)c3n2)cc1`, the Potency was inconclusive: 5.01 µM [decreasing]. `Cc1ccc(-n2c(SCC(=O)NCC3CCCO3)nc3n[nH]c(C)c3c2=N)cc1Cl` (stereo not drawn) was tested, and the Potency was “inactive”. In the case of `Cc1ccc(Nc2nc(N3CCOCC3)c3ccccc3n2)cc1`, the Potency is reported as inconclusive: 31.6 µM [decreasing]. `O=C(CCc1ccc(S(=O)(=O)N2CCOCC2)cc1)Nc1cc(Cl)ccc1N1CCOCC1` was tested, and the Potency was inconclusive: 12.6 µM [decreasing]. `CC(C)NC[C@H](O)COc1cccc2ccccc12` was tested, and the Potency was inconclusive: 39.8 µM [decreasing]. `O=c1c(-c2ccc(O)cc2)coc2cc(O)ccc12` was tested, and the Potency was inconclusive: 39.8 µM [decreasing]. With `N[C@@H](Cc1cc(CP(=O)(O)O)cc(-c2ccccc2Cl)c1)C(=O)O` the Potency was inconclusive: 39.8 µM [decreasing]. For `CCOC(=O)C1CCCN(C(=O)c2cnn3c(C(F)F)cc(-c4ccc(C)cc4)nc23)C1` (stereo not drawn), the Potency was inconclusive: 25.1 µM [decreasing]. In the case of `N[C@@H](Cc1cccnn1)C(=O)O`, the activity change, negative = inhibition is reported as inactive: 4% [at 11.4 µM]. `C[C@]1(c2ccccc2)OC(C(=O)O)=CC1=O` was tested, and the Potency was inconclusive: 39.8 µM [decreasing]. In the case of `O=C(COC(=O)c1cnccn1)c1ccc(Br)cc1`, the Potency is reported as “inactive”. `C[n+]1cc2c3c(ccc2c2ccc4cc5c(cc4c21)OCO5)OCO3` was tested, and the Potency was inconclusive: 39.8 µM [decreasing] and inconclusive: 15.8 µM [decreasing]. In the case of `COc1ccc(C(=O)N2CCC3(CCCN(c4ccccc4)C3)CC2)cc1`, the Potency is reported as “inactive”. In the case of `COC(=O)c1cc(NC(=O)Cn2c(=O)cnc3ccccc32)cc(C(=O)OC)c1`, the Potency is reported as inconclusive: 39.8 µM [decreasing]. In the case of `C=CCn1c(SCC(=O)N2CCOCC2)nc2sc3c(c2c1=O)CCCC3`, the Potency is reported as “inactive”. `N/C(=N\c1nc2ccccc2o1)NC(=O)C(Cc1ccccc1)N1C(=O)c2ccccc2C1=O` (stereo not drawn) was tested, and the Potency was active: 12.6 µM.
